Values joined by “and” are separate entries in the source; they are usually repeats but may differ in a detail not shown here. Equal values may be shown once. Where a name gives a salt, the structure may show the parent alone. Screen size: about 5,800 compounds; about 620 (11%) showed activity.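 Rule for the calls: active = score above a cut-off or among the top three wells of a plate; in these data no inactive exceeds 0.85.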 The list shows a part of the results, in another mix than the full data.
System: primary human hepatic stellate cells (donor 1)
Experiment: scaled lipid accumulation score (0 = DMSO-like, 1 = nortriptyline-like); higher = stronger HSC inactivation (lipid re-accumulation), active = hit call of the paper
Conditions: 48 h
[1] = library stock concentration: 80 uM
[2] = library stock concentration: 400 uM
[3] = library stock concentration: 2 mM
[4] = library stock concentration: 3.33 mM
[5] = library stock concentration: 10 mM
[6] = library stock concentration: 1 mM

COc1ccc(-c2ccc3c(N4CCOC[C@@H]4C)nc(N4CCOC[C@@H]4C)nc3n2)cc1CO
scaled lipid accumulation score [1]: inactive: ≤ 0
scaled lipid accumulation score [2]: inactive: 0.033
scaled lipid accumulation score [3]: inactive: 0.017
scaled lipid accumulation score [4]: inactive: ≤ 0
scaled lipid accumulation score [5]: inactive: ≤ 0

CC(C)C[C@H](NP(=O)(O)O[C@@H]1O[C@@H](C)[C@H](O)[C@@H](O)[C@H]1O)C(=O)N[C@@H](Cc1c[nH]c2ccccc12)C(=O)O [Phosphoramidon Disodium Salt]
scaled lipid accumulation score [4]: inactive: ≤ -0.009
scaled lipid accumulation score [5]: inactive: ≤ 0

O/N=C/c1ccc(-c2ccc(O)c(F)c2)c(Cl)c1O
scaled lipid accumulation score [5]: inactive: 0.02

CCc1cc2c(cc1CC)CC(NC[C@H](O)c1ccc(O)c3[nH]c(=O)ccc13)C2.O=C(O)C=CC(=O)O [Indacaterol Maleate]
scaled lipid accumulation score [5]: active: 1.15

CC[N+](C)(CC)CCOC(=O)C(O)(c1ccccc1)C1CCCCC1 (stereo not given)
scaled lipid accumulation score [5]: inactive: ≤ 0

CN(C)CCCn1cc(C2=C(c3c[nH]c4ccccc34)C(=O)NC2=O)c2ccccc21
scaled lipid accumulation score [5]: active: 1.04

O=C1c2c(O)cccc2Cc2cccc(O)c21 [Anthralin]
scaled lipid accumulation score (library stock concentration: 8.8 mM): inactive: 0.023
scaled lipid accumulation score [5]: inactive: 0.105

O=C(CCCN1CCC(O)(c2ccc(Cl)cc2)CC1)c1ccc(F)cc1 [Haloperidol]
scaled lipid accumulation score [5]: active: 1.12

OCCNCCCOc1cccc(Cl)c1Cl [2,3-DCPE (hydrochloride)]
scaled lipid accumulation score [6]: inactive: 0.049

CN1c2cc3c(cc2N=C(c2ccc(C(=O)O)cc2)c2ccccc21)C(C)(C)CCC3(C)C
scaled lipid accumulation score [5]: inactive: 0.08

COc1nccc(-c2c(-c3ccc(F)cc3)ncn2C2CCC(O)CC2)n1 (stereo not given)
scaled lipid accumulation score [1]: inactive: ≤ 0
scaled lipid accumulation score [2]: inactive: ≤ 0
scaled lipid accumulation score [3]: inactive: ≤ 0
scaled lipid accumulation score [4]: inactive: ≤ 0
scaled lipid accumulation score [5]: inactive: 0.029 and inactive: ≤ -0.006

COc1c(C)c(C(=O)c2ccc(N)c(C(=O)O)c2)n2ccccc12
scaled lipid accumulation score [4]: inactive: 0.175
scaled lipid accumulation score [5]: inactive: 0.268

C#CC(N)CCC(=O)O (stereo not given) [gamma-Acetylinic GABA]
scaled lipid accumulation score [5]: inactive: 0.037

CCCCC/N=c1\ccn(Cc2ccccc2)c2ccccc12
scaled lipid accumulation score [5]: inactive: 0.498

CCCCCC(=O)/C=C/[C@H]1[C@H](O)CC(=O)[C@@H]1C/C=C\CCCC(=O)O [15-keto Prostaglandin E2]
scaled lipid accumulation score [6]: inactive: ≤ 0

C[N+]1(C)CCC(OC(=O)C(c2ccccc2)c2ccccc2)CC1 [4-DAMP methiodide]
scaled lipid accumulation score [5]: inactive: 0.121

C[N+]1(C)CCC(OC(=O)C(c2ccccc2)c2ccccc2)CC1
scaled lipid accumulation score [5]: inactive: ≤ 0

O=Cc1c2[nH]c3ccccc3c2cc2[nH]c3ccccc3c12 [6-Formylindolo [3,2-B] carbazole]
scaled lipid accumulation score [6]: inactive: ≤ -0.02

CC(=O)Oc1ccccc1C(=O)Nc1ncc([N+](=O)[O-])s1 [Nitazoxanide]
scaled lipid accumulation score [4]: inactive: 0.007
scaled lipid accumulation score [5]: inactive: 0.218

CC(=O)Oc1ccccc1C(=O)Nc1ncc([N+](=O)[O-])s1
scaled lipid accumulation score [5]: inactive: 0.284

CCN(CC)CCOC(=O)C1(C2CCCCC2)CCCCC1 [Bentyl]
scaled lipid accumulation score [5]: inactive: 0.586

CCN(CC)CCOC(=O)C1(C2CCCCC2)CCCCC1 [Dicyclomine hydrochloride]
scaled lipid accumulation score: inactive: 0.734
scaled lipid accumulation score (library stock concentration: 5.8 mM): inactive: ≤ 0
scaled lipid accumulation score [5]: inactive: 0.386 and inactive: 0.127

O=c1cc(-c2ccccc2)oc2c(O)c(O)ccc12 [7,8-Dihydroxyflavone hydrate]
scaled lipid accumulation score [5]: inactive: ≤ 0

O=c1cc(-c2ccccc2)oc2c(O)c(O)ccc12 [7,8-dihydroxyflavone]
scaled lipid accumulation score [5]: inactive: 0.129

CCCCOCCOCCOCc1cc2c(cc1CCC)OCO2
scaled lipid accumulation score [5]: inactive: 0.298

CC(N/C(=N\C#N)Nc1ccncc1)C(C)(C)C (stereo not given) [Pinacidil monohydrate]
scaled lipid accumulation score [5]: inactive: ≤ 0

CC(N/C(=N\C#N)Nc1ccncc1)C(C)(C)C (stereo not given) [Pinacidil]
scaled lipid accumulation score: inactive: 0.077
scaled lipid accumulation score [5]: inactive: ≤ 0 and inactive: ≤ -0.001
scaled lipid accumulation score (library stock concentration: 20.4 mM): inactive: 0.096

CC1(C)OC(=O)C(OCC2CC2)=C1c1ccc(S(C)(=O)=O)cc1
scaled lipid accumulation score [5]: inactive: ≤ 0

CCCCCCCCCCCCCCCC(=O)OCC(O)C1OC(=O)C(O)=C1O [L-Ascorbyl 6-palmitate]
scaled lipid accumulation score [4]: inactive: 0.009
scaled lipid accumulation score [5]: inactive: ≤ 0

CCCc1cc(C)[nH]c(=O)c1CNC(=O)c1cc(-c2ccc(N3CCN(C(C)C)CC3)nc2)cc2c1cnn2C(C)C
scaled lipid accumulation score [4]: inactive: 0.09
scaled lipid accumulation score [5]: inactive: 0.78

COc1ccc([C@@H]2CC(=O)c3c(O)cc(O)cc3O2)cc1O [Hesperetin]
scaled lipid accumulation score: inactive: ≤ 0
scaled lipid accumulation score [6]: inactive: 0.036
scaled lipid accumulation score [4]: inactive: ≤ 0
scaled lipid accumulation score [5]: inactive: 0.079

CN1CCCN(C(c2ccccc2)c2ccc(Cl)cc2)CC1.Cl.Cl (stereo not given) [Homochlorcyclizine dihydrochloride]
scaled lipid accumulation score: active: 0.879

Nc1c(CC(=O)O)cccc1C(=O)c1ccccc1 [Amfenac Sodium Monohydrate]
scaled lipid accumulation score [4]: inactive: ≤ 0
scaled lipid accumulation score [5]: inactive: 0.019

CC(C)(C)C(=O)Nc1ccc2c(c1)C(=O)C(=O)c1ccccc1-2
scaled lipid accumulation score [4]: inactive: ≤ -0.009
scaled lipid accumulation score [5]: inactive: 0.155

O=C1NC(=O)c2c1c(-c1ccccc1)cc1[nH]c3ccc(O)cc3c21
scaled lipid accumulation score [5]: inactive: ≤ -0.055 and inactive: ≤ -0.001

N=C1NC(=O)/C(=C/c2ccc(O)cc2)S1 [Mirin]
scaled lipid accumulation score [6]: inactive: ≤ 0

C[N+]1(C)CCC(OC(=O)C(O)(c2ccccc2)C2CCCC2)C1 (stereo not given)
scaled lipid accumulation score [5]: inactive: ≤ 0

C[N+]1(C)CCC(OC(=O)C(O)(c2ccccc2)C2CCCC2)C1 (stereo not given) [Glycopyrrolate]
scaled lipid accumulation score: inactive: ≤ 0
scaled lipid accumulation score (library stock concentration: 5 mM): inactive: ≤ 0

O=C(Nc1ccc([N+](=O)[O-])cc1Cl)c1cc(Cl)ccc1O [Niclosamide]
scaled lipid accumulation score (library stock concentration: 6.1 mM): active: 1.15
scaled lipid accumulation score [5]: active: 1.08

O=C(Nc1cccc(Cl)c1)c1ccccn1
scaled lipid accumulation score [4]: inactive: ≤ 0
scaled lipid accumulation score [5]: inactive: ≤ 0

C[C@@]1(C(=O)Nc2ccc(F)nc2)CCCN1c1nc(Nc2cc(C3CC3)n[nH]2)c2cccn2n1
scaled lipid accumulation score [4]: inactive: ≤ 0
scaled lipid accumulation score [5]: inactive: 0.177

Clc1ccc(CCC(Cn2ccnc2)Sc2c(Cl)cccc2Cl)cc1 (stereo not given) [Butoconazole nitrate]
scaled lipid accumulation score: inactive: 0.069
scaled lipid accumulation score [4]: inactive: ≤ 0
scaled lipid accumulation score [5]: inactive: 0.16

Clc1ccc(CCC(Cn2ccnc2)Sc2c(Cl)cccc2Cl)cc1 (stereo not given)
scaled lipid accumulation score [5]: inactive: 0.113

N[C@H](C(=O)O)c1ccc(O)c(C(=O)O)c1 [(S)-3-Carboxy-4-hydroxyphenylglycine]
scaled lipid accumulation score [5]: inactive: ≤ 0

CN(C)C(=O)Nc1cccc(-c2ccc(N(C)C)cc2)c1 [Atglistatin]
scaled lipid accumulation score [4]: inactive: 0.012
scaled lipid accumulation score [5]: inactive: 0.076

CC1(C)CC(Nc2nccc(-c3cnn(-c4ccccc4)c3)n2)CC(C)(C)N1
scaled lipid accumulation score [5]: active: 0.799

CC1c2cccc(O)c2C(O)=C2C(=O)C3(O)C(O)=C(C(N)=O)C(=O)C(N(C)C)C3C(O)C21 (stereo not given) [Doxycycline hydrochloride]
scaled lipid accumulation score [5]: inactive: ≤ -0.07

CCCCC/C=C\C[C@H](O)/C=C/C=C\C/C=C\CCCC(=O)O
scaled lipid accumulation score (library stock concentration: 100 uM): inactive: ≤ -0.021

N#Cc1ccc(C(c2ccc(C#N)cc2)n2cncn2)cc1 [Letrozole]
scaled lipid accumulation score: inactive: ≤ 0
scaled lipid accumulation score [4]: inactive: ≤ 0
scaled lipid accumulation score (library stock concentration: 7 mM): inactive: ≤ -0.006
scaled lipid accumulation score [5]: inactive: ≤ 0

N#Cc1ccc(C(c2ccc(C#N)cc2)n2cncn2)cc1
scaled lipid accumulation score [5]: inactive: ≤ 0

N=C(NCCCCCCNC(=N)NC(=N)Nc1ccc(Cl)cc1)NC(=N)Nc1ccc(Cl)cc1 [Chlorhexidine]
scaled lipid accumulation score: inactive: 0.009
scaled lipid accumulation score (library stock concentration: 3.5 mM): inactive: 0.006
scaled lipid accumulation score [5]: inactive: ≤ 0

N=C(NCCCCCCNC(=N)NC(=N)Nc1ccc(Cl)cc1)NC(=N)Nc1ccc(Cl)cc1 [Chlorhexidine HCl]
scaled lipid accumulation score [4]: inactive: 0.173
scaled lipid accumulation score [5]: inactive: 0.327

NCc1ccccc1CC(=O)N[C@@H]1C(=O)N2C(C(=O)O)=C(CSc3nnnn3CC(=O)O)CS[C@H]12 [Ceforanide]
scaled lipid accumulation score: inactive: ≤ 0

COc1c2occc2cc2ccc(=O)oc12 [Methoxsalen]
scaled lipid accumulation score [4]: inactive: ≤ 0
scaled lipid accumulation score (library stock concentration: 9.3 mM): inactive: ≤ -0.001
scaled lipid accumulation score [5]: inactive: ≤ 0

COc1c2occc2cc2ccc(=O)oc12 [Methoxy-8-psoralen]
scaled lipid accumulation score: inactive: ≤ 0

CC(C)CC(N)=O
scaled lipid accumulation score [5]: inactive: 0.291

CC(C)CC(N)=O [Isovaleramide]
scaled lipid accumulation score [4]: inactive: ≤ 0
scaled lipid accumulation score [5]: inactive: ≤ -0.001

CN1CCN(C2=Nc3ccccc3Oc3ccc(Cl)cc32)CC1 [Loxapine succinate]
scaled lipid accumulation score: inactive: 0.3
scaled lipid accumulation score (library stock concentration: 4.5 mM): inactive: 0.253
scaled lipid accumulation score [5]: inactive: 0.708 and inactive: 0.486

CN1CCN(C2=Nc3ccccc3Oc3ccc(Cl)cc32)CC1
scaled lipid accumulation score [5]: inactive: 0.608

CN1CCN(C2=Nc3ccccc3Oc3ccc(Cl)cc32)CC1 [Loxapine Succinate]
scaled lipid accumulation score [4]: inactive: ≤ 0
scaled lipid accumulation score [5]: inactive: 0.493

CCCC/C=C\CCCCCCCC(=O)OC [Myristoleic Acid methyl ester]
scaled lipid accumulation score [6]: inactive: ≤ 0

CCOC(=O)[C@@H](N)Cc1ccc(-c2cc(O[C@H](c3ccc(Cl)cc3-n3ccc(C)n3)C(F)(F)F)nc(N)n2)cc1 [Telotristat Etiprate (LX 1606 Hippurate)]
scaled lipid accumulation score [4]: inactive: ≤ 0
scaled lipid accumulation score [5]: inactive: 0.235

Oc1ccc2ccccc2c1 [beta-NAPHTHOL]
scaled lipid accumulation score [5]: inactive: ≤ 0

CC(=O)OCC(=O)[C@@]1(O)[C@@H](C)C[C@H]2[C@@H]3CCC4=CC(=O)C=C[C@]4(C)[C@@]3(F)[C@@H](O)C[C@@]21C
scaled lipid accumulation score [5]: inactive: ≤ 0

NCCC[C@](N)(C(=O)O)C(F)F (racemic) [DL-alpha-Difluoromethylornithine hydrochloride]
scaled lipid accumulation score [5]: inactive: ≤ -0.07

c1ccc(NCc2ccc(CNc3ccccn3)cc2)nc1
scaled lipid accumulation score [4]: inactive: ≤ 0
scaled lipid accumulation score [5]: inactive: ≤ 0

Source: the supplement of paper PMC9135407
